# Test results taken from the supplement of paper PMC8728848.
# The other results are listed elsewhere or left out.
# B1: Epa7 (Candida glabrata), Q6DTM6_CANGB (protein)
# chain: MGSSHHHHHHSSGLVPRGSHMKDDYSSFLSNNNLGWTDPTEFPLGCSPNVTTPKNGLSMELYSYDLRKNGSYPCWDAAYLDPNYPRTGYKSHRLLAKVDGVTGNINFYYHATKGCTPEIDHLPASYNYPKPLTMTNFTMLLYGYFKPKVTGYHTFTISADDLLFVNFGAGNAFDCCKRESSADDFGNYQAYAVWGSQTAKDDLTVHLDAGLYYPIRIFFNNREYDAELSLTLKTESDSNPVIDFSDYFYSFDDTKDGCPGLVSYDTS
# How the values were obtained:
# Assay in all cases: glycan array binding signal (z-score within array); higher = stronger binding
# Details in all cases: glycan notation: IUPAC condensed, linker removed
# [1] = target: Glc(a1-4)Glc(a1-4)Glc(a1-4)Glc
# In short: (§1)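 Columns mapping to the same glycan were averaged after glycan names were converted to IUPAC-condensed notation. The data come from 3228 arrays in the Consortium for Functional Glycomics database, limited to those with an available protein sequence. Binding is reported as a within-array Z-score averaged across arrays of one protein sequence and across linkers.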
# Glc(a1-6)Glc(a1-6)Glc = target: Glc(a1-6)Glc(a1-6)Glc
# In short: as §1
# [2] = target: Glc(a1-6)Glc(a1-6)Glc(a1-6)Glc
# In short: as §1
# Glc(b1-4)Glc = target: Glc(b1-4)Glc
# In short: as §1
# Glc(b1-6)Glc = target: Glc(b1-6)Glc
# In short: as §1
# GlcA(b1-3)Gal = target: GlcA(b1-3)Gal
# In short: as §1
# GlcA(b1-3)GlcNAc = target: GlcA(b1-3)GlcNAc
# In short: as §1
# GlcA(b1-6)Gal = target: GlcA(b1-6)Gal
# In short: as §1
# [3] = target: GlcA3S(b1-3)Gal(b1-4)GlcNAc(b1-2)Man
# In short: as §1
# [4] = target: GlcA3S(b1-3)Gal(b1-4)GlcNAc(b1-3)Gal(b1-4)Glc
# In short: as §1
# [5] = target: GlcNAc(a1-3)Gal(b1-4)GlcNAc
# In short: as §1
# [6] = target: GlcNAc(a1-4)Gal(b1-3)GlcNAc
# In short: as §1
# [7] = target: GlcNAc(a1-4)Gal(b1-4)GalNAc
# In short: as §1
# [8] = target: GlcNAc(a1-4)Gal(b1-4)GlcNAc
# In short: as §1
# [9] = target: GlcNAc(a1-4)Gal(b1-4)GlcNAc(b1-3)Gal(b1-4)Glc
# In short: as §1
# [10] = target: GlcNAc(a1-4)Gal(b1-4)GlcNAc(b1-3)Gal(b1-4)GlcNAc
# In short: as §1
# [11] = target: GlcNAc(a1-4)Gal(b1-4)GlcNAc(b1-3)Gal(b1-4)GlcNAc(b1-3)Gal(b1-4)GlcNAc
# In short: as §1
# [12] = target: GlcNAc(a1-4)Gal(b1-4)GlcNAc(b1-3)Gal(b1-4)[Fuc(a1-3)]GlcNAc(b1-3)Gal(b1-4)[Fuc(a1-3)]GlcNAc
# In short: as §1
# [13] = target: GlcNAc(a1-6)Gal(b1-4)GlcNAc
# In short: as §1
# [14] = target: GlcNAc(b1-2)Gal(b1-3)GalNAc
# In short: as §1
# [15] = target: GlcNAc(b1-2)Gal(b1-3)GlcNAc
# In short: as §1
# [16] = target: GlcNAc(b1-2)Man(a1-3)[GlcNAc(b1-2)Man(a1-6)]Man(b1-4)GlcNAc(b1-4)GlcNAc
# In short: as §1
# [17] = target: GlcNAc(b1-2)Man(a1-3)[GlcNAc(b1-2)Man(a1-6)]Man(b1-4)GlcNAc(b1-4)[Fuc(a1-6)]GlcNAc
# In short: as §1
# [18] = target: GlcNAc(b1-2)Man(a1-3)[GlcNAc(b1-4)][GlcNAc(b1-2)Man(a1-6)]Man(b1-4)GlcNAc(b1-4)GlcNAc
# In short: as §1
# [19] = target: GlcNAc(b1-2)Man(a1-3)[GlcNAc(b1-4)][GlcNAc(b1-2)Man(a1-6)]Man(b1-4)GlcNAc(b1-4)[Fuc(a1-6)]GlcNAc
# In short: as §1
# [20] = target: GlcNAc(b1-2)[GlcNAc(b1-4)]Man(a1-3)[GlcNAc(b1-2)Man(a1-6)]Man(b1-4)GlcNAc(b1-4)GlcNAc
# In short: as §1
# [21] = target: GlcNAc(b1-2)[GlcNAc(b1-4)]Man(a1-3)[GlcNAc(b1-4)][GlcNAc(b1-2)Man(a1-6)]Man(b1-4)GlcNAc(b1-4)GlcNAc
# In short: as §1
# [22] = target: GlcNAc(b1-2)[GlcNAc(b1-4)]Man(a1-3)[GlcNAc(b1-4)][GlcNAc(b1-2)[GlcNAc(b1-6)]Man(a1-6)]Man(b1-4)GlcNAc(b1-4)GlcNAc
# In short: as §1
# [23] = target: GlcNAc(b1-2)[GlcNAc(b1-4)]Man(a1-3)[GlcNAc(b1-4)][GlcNAc(b1-2)[GlcNAc(b1-6)]Man(a1-6)]Man(b1-4)GlcNAc(b1-4)[Fuc(a1-6)]GlcNAc
# In short: as §1
# [24] = target: GlcNAc(b1-2)[GlcNAc(b1-6)]Man(a1-6)[GlcNAc(b1-2)Man(a1-3)]Man(b1-4)GlcNAc(b1-4)GlcNAc
# In short: as §1
# [25] = target: GlcNAc(b1-2)[GlcNAc(b1-6)]Man(a1-6)[GlcNAc(b1-2)Man(a1-3)]Man(b1-4)GlcNAc(b1-4)[Fuc(a1-6)]GlcNAc
# In short: as §1
# [26] = target: GlcNAc(b1-2)[GlcNAc(b1-6)]Man(a1-6)[GlcNAc(b1-4)][GlcNAc(b1-2)Man(a1-3)]Man(b1-4)GlcNAc(b1-4)GlcNAc
# In short: as §1
# GlcNAc(b1-3)Fuc = target: GlcNAc(b1-3)Fuc
# In short: as §1
# GlcNAc(b1-3)Gal = target: GlcNAc(b1-3)Gal
# In short: as §1
# [27] = target: GlcNAc(b1-3)Gal(b1-3)GalNAc
# In short: as §1
# GlcNAc(b1-3)Gal(b1-4)Glc = target: GlcNAc(b1-3)Gal(b1-4)Glc
# In short: as §1
# [28] = target: GlcNAc(b1-3)Gal(b1-4)GlcNAc
# In short: as §1
# [29] = target: GlcNAc(b1-3)Gal(b1-4)GlcNAc(b1-2)Man(a1-3)[GlcNAc(b1-3)Gal(b1-4)GlcNAc(b1-2)Man(a1-6)]Man(b1-4)GlcNAc(b1-4)GlcNAc
# In short: as §1
binder,measurement,setting,value
B1,glycan array binding signal (z-score),[1],-0.236
same,glycan array binding signal (z-score),Glc(a1-6)Glc(a1-6)Glc,-0.256
same,glycan array binding signal (z-score),[2],-0.241
same,glycan array binding signal (z-score),Glc(b1-4)Glc,-0.255
same,glycan array binding signal (z-score),Glc(b1-6)Glc,-0.25
same,glycan array binding signal (z-score),GlcA(b1-3)Gal,-0.258
same,glycan array binding signal (z-score),GlcA(b1-3)GlcNAc,-0.224
same,glycan array binding signal (z-score),GlcA(b1-6)Gal,-0.188
same,glycan array binding signal (z-score),[3],-0.239
same,glycan array binding signal (z-score),[4],-0.237
same,glycan array binding signal (z-score),[5],-0.259
same,glycan array binding signal (z-score),[6],-0.231
same,glycan array binding signal (z-score),[7],-0.22
same,glycan array binding signal (z-score),[8],-0.196
same,glycan array binding signal (z-score),[9],-0.234
same,glycan array binding signal (z-score),[10],-0.235
same,glycan array binding signal (z-score),[11],-0.237
same,glycan array binding signal (z-score),[12],-0.087
same,glycan array binding signal (z-score),[13],1.27
same,glycan array binding signal (z-score),[14],-0.197
same,glycan array binding signal (z-score),[15],-0.273
same,glycan array binding signal (z-score),[16],-0.248
same,glycan array binding signal (z-score),[17],-0.232
same,glycan array binding signal (z-score),[18],-0.245
same,glycan array binding signal (z-score),[19],-0.244
same,glycan array binding signal (z-score),[20],-0.226
same,glycan array binding signal (z-score),[21],-0.241
same,glycan array binding signal (z-score),[22],-0.243
same,glycan array binding signal (z-score),[23],-0.238
same,glycan array binding signal (z-score),[24],-0.238
same,glycan array binding signal (z-score),[25],-0.224
same,glycan array binding signal (z-score),[26],-0.242
same,glycan array binding signal (z-score),GlcNAc(b1-3)Fuc,-0.233
same,glycan array binding signal (z-score),GlcNAc(b1-3)Gal,-0.257
same,glycan array binding signal (z-score),[27],-0.197
same,glycan array binding signal (z-score),GlcNAc(b1-3)Gal(b1-4)Glc,-0.242
same,glycan array binding signal (z-score),[28],-0.258
same,glycan array binding signal (z-score),[29],-0.233
